Laboratory results taken from the supplement of paper PMC3334620.
Whole data set: some 33,000 sequences, median “E-score (-0.5 to 0.5)” near -0.013, cut for the highest 2% near 0.3. The list shows a part of the results.

target: T1, Msn1 (UniProt P22148); test: PBM E-score (8-mer binding enrichment) (E-score (-0.5 to 0.5)); higher = stronger / more preferred TF binding; most listed sequences are background and not binding sites; settings: protein concentration: 200 nM; construct: GST-full length
T1 sequence: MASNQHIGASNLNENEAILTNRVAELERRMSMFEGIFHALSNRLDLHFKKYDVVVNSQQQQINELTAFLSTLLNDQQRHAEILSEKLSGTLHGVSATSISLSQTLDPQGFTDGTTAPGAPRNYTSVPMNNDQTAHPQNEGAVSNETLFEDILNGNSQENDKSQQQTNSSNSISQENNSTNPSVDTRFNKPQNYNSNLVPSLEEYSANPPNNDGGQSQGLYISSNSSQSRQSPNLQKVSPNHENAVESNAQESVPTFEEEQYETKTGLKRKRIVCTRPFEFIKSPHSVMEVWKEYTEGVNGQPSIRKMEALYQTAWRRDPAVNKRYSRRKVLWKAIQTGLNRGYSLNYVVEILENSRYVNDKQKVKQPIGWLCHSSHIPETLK
Description: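 Universal 'all 10-mer' protein binding microarrays (Agilent AMADID 015681) probed with GST-tagged S. cerevisiae TFs (full-length or DBD) made by in vitro transcription/translation (PURExpress), about 100-200 nM. Bound TF was detected with fluorescent anti-GST. Each ungapped 8-mer (which stands for itself and its reverse complement) is scored by the PBM enrichment score (E-score), a modified Wilcoxon-Mann-Whitney statistic from -0.5 to +0.5, computed with the Universal PBM Analysis Suite. Scale: above 0.35 generally sequence-specific binding.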

Row | Sequence | PBM E-score
1 | AGTTCAGG | -0.0736
2 | AGTGGACA | 0.389
3 | ATCTAGCG | -0.169
4 | CCTTTGGC | -0.132
5 | CGAATTTC | 0.228
6 | CACTAGAA | -0.146
7 | CACCTCCG | -0.053
8 | CGCGTATA | -0.11
9 | CGGATTAA | 0.0802
10 | AGGGGCAC | -0.344
11 | GTCCGAAC | 0.214
12 | CACAAACG | 0.28
13 | CCGTGGAC | 0.0661
14 | CGAGGAGC | -0.0427
15 | GCAACTAC | -0.0253
16 | GTTACCGA | -0.0628
17 | CTCTATGC | -0.0926
18 | CACGACTA | -0.00472
19 | GCTAGCCA | -0.144
20 | TAGAACAA | 0.0296
21 | CACGGGCC | -0.225
22 | AACAACTA | -0.00182
23 | TCCAGCGA | -0.173
24 | AAAGTTTG | 0.148
25 | GCTCAGTA | -0.0319

Row | Sequence | PBM E-score
26 | ACGAGTAA | 0.204
27 | ATACAGCG | -0.0744
28 | CTTATAAC | 0.0642
29 | CTACCCAC | -0.155
30 | CTCGGCCA | -0.0497
31 | ACAATTCA | 0.155
32 | ACACCTGC | -0.0593
33 | ATGTATTC | -0.0192
34 | TCCTGTAA | 0.0376
35 | GATCACCC | -0.167
36 | ACTGCTGG | -0.169
37 | CGTGCACC | -0.164
38 | ACCTACTG | -0.189
39 | CTGCGAGA | -0.153
40 | CGGAATTC | 0.0764
41 | CTTATTAC | 0.102
42 | ACCGTGCC | -0.296
43 | ACGTACTG | 0.0672
44 | CCCGGGCG | -0.159
45 | CACGTAGG | -0.0824
46 | ACGTGCTC | 0.0894
47 | ACGGCTCA | -0.0304
48 | ATACTAAC | 0.132
49 | CAGAAGCA | 0.095
50 | TCAACAGA | 0.122

Row | Sequence | PBM E-score
51 | CGCAGTGC | -0.285
52 | AGCGAGAA | -0.0303
53 | ACGTATCG | 0.0434
54 | GCAGGATA | -0.224
55 | AGTTACAC | -0.00168
56 | AGTTGGAT | -0.0124
57 | CGACATAC | 0.281
58 | GACGGCAC | -0.081
59 | ATATAGAG | -0.0323
60 | ACCTCCTA | -0.222
61 | CAGAATCG | 0.0773
62 | AAGCGGGT | -0.041
63 | ATTCCCTC | -0.137
64 | CCTTAAGA | -0.0211
65 | GAACAGAA | 0.0194
66 | GTAAAGTA | 0.0255
67 | CCAATGTA | 0.0173
68 | GCACGACC | -0.175
69 | CAAGTGTC | 0.221
70 | AACCAGAG | -0.244
71 | CCGGTTAA | -0.0631
72 | CGTTACTC | -0.115
73 | AGCCGGAC | 0.109
74 | CGCAGGTA | -0.0854
75 | GGGGAGAA | -0.173

Row | Sequence | PBM E-score
76 | CGCCCCCC | -0.383
77 | GCCTTCCA | -0.367
78 | AATTGGCC | -0.109
79 | ATTTATAC | 0.176
80 | GACCCGAC | -0.0784
81 | TATCATGA | -0.00129
82 | ACCTAGAA | -0.00168
83 | ACCTTATA | 0.0613
84 | CCAAACGG | -0.136
85 | CATCTAAG | 0.0489
86 | AGACCTAC | -0.0926
87 | CACTTTGG | -0.0207
88 | TCGATAAA | 0.248
89 | GCCTTCAC | -0.0643
90 | AGGGGTTA | -0.248
91 | AAATGGGA | 0.0348
92 | CAAATTGG | 0.174
93 | AGACGGCC | -0.33
94 | GCGAAAAA | 0.0197
95 | GGTTTTAA | 0.0613
96 | AACATGCA | -0.0174
97 | AGACCCTG | -0.165
98 | TAATCGAA | 0.142
99 | CCTAGCTC | -0.148
100 | CAAGATGG | -0.0978

Row | Sequence | PBM E-score
101 | CCACTGCA | 0.0537
102 | GGCTTGAA | -0.0689
103 | CCAACCCG | -0.0115
104 | GGTGTGAA | 0.178
105 | ACATTAGA | 0.236
106 | CCTAATAG | -0.0111
107 | CGTTGCAG | -0.0934
108 | GTGCTTTA | 0.0809
109 | CCTTTGCC | -0.104
110 | AATTCGTA | 0.106
111 | GAGAGCGA | 0.00579
112 | CACACATG | -0.0314
113 | CCGGTTGC | 0.0883
114 | AATGGCGA | 0.118
115 | ACACCGTG | -0.05
116 | AAAAGATA | 0.0886
117 | CCATCCCG | -0.158
118 | CTTATCCA | 0.135
119 | ACCATGGC | 0.105
120 | GATTTGCA | 0.0983
121 | AACTCCTG | -0.221
122 | TATCTCAA | 0.201
123 | AACCGATA | 0.071
124 | GGCAATAC | 0.101
125 | CGAGACCG | 0.0114

Row | Sequence | PBM E-score
126 | GCCTTCGA | -0.163
127 | AAGCAGAC | -0.0714
128 | AGTGGAAA | 0.0448
129 | ACATCTAG | 0.142
130 | ATCAACAC | 0.151
131 | CTTCATAC | 0.0362
132 | CCGTGCGA | 0.00353
133 | CTGAAAGA | 0.0495
134 | TCTAGACA | 0.332
135 | CTGTCGCC | -0.0982
136 | GCGAGTCC | -0.149
137 | ATCGGGCC | -0.144
138 | AATCAACA | 0.209
139 | CTTGAGCC | -0.205
140 | GAGCTCTA | -0.0425
141 | CGCCTGGA | -0.0478
142 | ACGTAAGA | 0.0894
143 | GACTCGAA | -0.164
144 | TAATTCAA | 0.208
145 | GATGGCGC | -0.252
146 | CGTGGATC | -0.00231
147 | CTGTCAAA | 0.0466
148 | ATAGGCAT | -0.117
149 | ACTACTAT | 0.23
150 | GTCACACA | -0.0461

Row | Sequence | PBM E-score
151 | ACACGGAA | 0.166
152 | ATCCTTAC | -0.0633
153 | ATAGATGA | -0.0355
154 | CAGAGCCA | -0.237
155 | CGGGCAAA | 0.0842
156 | AGGCTTTA | -0.202
157 | ACCCGTGG | -0.192
158 | ATCGATAA | 0.169
159 | AACCTACG | -0.134
160 | CAATATGG | -0.0474
161 | CTCGACAA | 0.0867
162 | GTTTTGGA | 0.042
163 | TATGGAGA | 0.0848
164 | CCTGAATC | -0.0296
165 | GAATGATC | 0.0556
166 | CGTTCGTA | 0.0362
167 | ACGTACCG | 0.0256
168 | AGGTACCT | 0.0194
169 | CGTAAGAG | -0.0677
170 | GCTAAGAA | -0.238
171 | ACCATACA | -0.0109
172 | GTTGTTAA | 0.334
